{"source": "the supplement of paper PMC12645437", "about": "“Orthogonal IMiD-Degron Pairs Induce Selective Protein Degradation in Cells” (ACS Chemical Biology, 2025)", "note": "This is one part of the list.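 Also: jurkat cells carrying a lentiviral library of mutant zinc finger degrons fused to EGFP plus mCherry, mCherry+ cells FACS sorted, degron abundance counted by next-generation sequencing.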"}
{"target": "no compound (DMSO)", "assay": "log2 fold change of degron read counts, EGFP-low vs EGFP+ sorted cells; higher = lower degron-EGFP level without compound (poor expression or instability)", "settings": "compound: DMSO control; 18 h"}
{"sequence": "FGCPICGHWFTQKGNLLRHIKL", "log2 fold change of degron read counts": 0.686}
{"sequence": "FKCNVCGASFTQKGNLLRHIKL", "log2 fold change of degron read counts": -1.47}
{"sequence": "FCCPICGRLFTQKGNLLRHIKL", "log2 fold change of degron read counts": 0.239}
{"sequence": "FKCDVCGAEFTQKGNLLRHIKL", "log2 fold change of degron read counts": -3.38}
{"sequence": "FACEICGRHFTQKGNLLRHIKL", "log2 fold change of degron read counts": -0.856}
{"sequence": "LNCNQCGFCCTQKGNLLRHIKL", "log2 fold change of degron read counts": 0.209}
{"sequence": "FTCEICGHPFTQKGNLLRHIKL", "log2 fold change of degron read counts": -0.883}
{"sequence": "FMCDQCGAGFTQKGNLLRHIKL", "log2 fold change of degron read counts": -2.02}
{"sequence": "FECEQCGAKFTQKGNLLRHIKL", "log2 fold change of degron read counts": -1.54}
{"sequence": "FQCEICGRMFTQKGNLLRHIKL", "log2 fold change of degron read counts": -2.01}
{"sequence": "FFCNQCGHNFTQKGNLLRHIKL", "log2 fold change of degron read counts": 0.448}
{"sequence": "FRCPQCGAMFTQKGNLLRHIKL", "log2 fold change of degron read counts": -0.373}
{"sequence": "FACNQCGHSFTQKGNLLRHIKL", "log2 fold change of degron read counts": -0.865}
{"sequence": "FLCPICGRYFTQKGNLLRHIKL", "log2 fold change of degron read counts": 0.501}
{"sequence": "FACDICGAHFTQKGNLLRHIKL", "log2 fold change of degron read counts": -1.88}
{"sequence": "FWCNQCGHKFTQKGNLLRHIKL", "log2 fold change of degron read counts": 0.692}
{"sequence": "FRCSVCGHLFTQKGNLLRHIKL", "log2 fold change of degron read counts": -0.295}
{"sequence": "FTCPICGHGFTQKGNLLRHIKL", "log2 fold change of degron read counts": -0.407}
{"sequence": "FSCEICGRKFTQKGNLLRHIKL", "log2 fold change of degron read counts": -1.78}
{"sequence": "FFCPICGRAFTQKGNLLRHIKL", "log2 fold change of degron read counts": -0.957}
{"sequence": "FGCEQCGAIFTQKGNLLRHIKL", "log2 fold change of degron read counts": -0.777}
{"sequence": "FACNICGAHFTQKGNLLRHIKL", "log2 fold change of degron read counts": -0.107}
{"sequence": "FWCNICGAPFTQKGNLLRHIKL", "log2 fold change of degron read counts": 0.95}
{"sequence": "FQCNQCGRHFTQKGNLLRHIKL", "log2 fold change of degron read counts": -0.376}
{"sequence": "FHCDVCGAYFTQKGNLLRHIKL", "log2 fold change of degron read counts": -0.888}
{"sequence": "FSCNICGAAFTQKGNLLRHIKL", "log2 fold change of degron read counts": -0.172}
{"sequence": "FSCDICGAPFTQKGNLLRHIKL", "log2 fold change of degron read counts": -0.165}
{"sequence": "FCCNQCGRHFTQKGNLLRHIKL", "log2 fold change of degron read counts": 0.101}
{"sequence": "FDCEICGRQFTQKGNLLRHIKL", "log2 fold change of degron read counts": -1.82}
{"sequence": "FACNQCGHPFTQKGNLLRHIKL", "log2 fold change of degron read counts": 0.257}
{"sequence": "FECNVCGAYFTQKGNLLRHIKL", "log2 fold change of degron read counts": -0.381}
{"sequence": "FLCNQCGACFTQKGNLLRHIKL", "log2 fold change of degron read counts": -0.477}
